The values below come from PMC4274898.

No constants are given. Whether binding was seen depends on the method and setting. Some entries that bind do so weakly or less than the wild type.

Sequences and labels used below:
T1: ARF5 (Arabidopsis thaliana) (UniProt P93024)
T1 sequence: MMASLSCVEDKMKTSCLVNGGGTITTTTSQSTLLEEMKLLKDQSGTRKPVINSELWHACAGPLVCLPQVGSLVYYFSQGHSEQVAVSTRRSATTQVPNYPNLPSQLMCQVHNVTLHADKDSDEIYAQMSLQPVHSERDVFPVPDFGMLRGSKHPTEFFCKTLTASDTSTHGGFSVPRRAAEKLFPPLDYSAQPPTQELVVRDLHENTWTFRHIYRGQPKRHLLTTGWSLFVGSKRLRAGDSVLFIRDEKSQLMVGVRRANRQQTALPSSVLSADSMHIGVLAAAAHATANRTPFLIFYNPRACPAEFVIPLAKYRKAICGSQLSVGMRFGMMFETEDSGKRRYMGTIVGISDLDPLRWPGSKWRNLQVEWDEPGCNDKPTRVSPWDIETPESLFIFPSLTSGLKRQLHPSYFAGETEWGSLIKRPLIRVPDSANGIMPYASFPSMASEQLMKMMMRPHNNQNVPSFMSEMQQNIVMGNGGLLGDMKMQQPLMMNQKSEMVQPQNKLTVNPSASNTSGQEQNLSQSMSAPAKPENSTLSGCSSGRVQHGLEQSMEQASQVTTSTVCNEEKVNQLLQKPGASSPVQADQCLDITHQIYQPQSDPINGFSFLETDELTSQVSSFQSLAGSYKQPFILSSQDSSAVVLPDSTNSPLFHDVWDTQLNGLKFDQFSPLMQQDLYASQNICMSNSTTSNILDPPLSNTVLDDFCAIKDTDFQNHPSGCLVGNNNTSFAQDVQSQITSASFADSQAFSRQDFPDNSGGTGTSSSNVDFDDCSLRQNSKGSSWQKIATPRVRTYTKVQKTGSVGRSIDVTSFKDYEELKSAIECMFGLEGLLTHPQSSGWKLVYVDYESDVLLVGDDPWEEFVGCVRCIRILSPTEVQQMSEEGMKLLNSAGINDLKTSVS

T2: ARF19 (Arabidopsis thaliana) (UniProt Q8RYC8)
T2 sequence: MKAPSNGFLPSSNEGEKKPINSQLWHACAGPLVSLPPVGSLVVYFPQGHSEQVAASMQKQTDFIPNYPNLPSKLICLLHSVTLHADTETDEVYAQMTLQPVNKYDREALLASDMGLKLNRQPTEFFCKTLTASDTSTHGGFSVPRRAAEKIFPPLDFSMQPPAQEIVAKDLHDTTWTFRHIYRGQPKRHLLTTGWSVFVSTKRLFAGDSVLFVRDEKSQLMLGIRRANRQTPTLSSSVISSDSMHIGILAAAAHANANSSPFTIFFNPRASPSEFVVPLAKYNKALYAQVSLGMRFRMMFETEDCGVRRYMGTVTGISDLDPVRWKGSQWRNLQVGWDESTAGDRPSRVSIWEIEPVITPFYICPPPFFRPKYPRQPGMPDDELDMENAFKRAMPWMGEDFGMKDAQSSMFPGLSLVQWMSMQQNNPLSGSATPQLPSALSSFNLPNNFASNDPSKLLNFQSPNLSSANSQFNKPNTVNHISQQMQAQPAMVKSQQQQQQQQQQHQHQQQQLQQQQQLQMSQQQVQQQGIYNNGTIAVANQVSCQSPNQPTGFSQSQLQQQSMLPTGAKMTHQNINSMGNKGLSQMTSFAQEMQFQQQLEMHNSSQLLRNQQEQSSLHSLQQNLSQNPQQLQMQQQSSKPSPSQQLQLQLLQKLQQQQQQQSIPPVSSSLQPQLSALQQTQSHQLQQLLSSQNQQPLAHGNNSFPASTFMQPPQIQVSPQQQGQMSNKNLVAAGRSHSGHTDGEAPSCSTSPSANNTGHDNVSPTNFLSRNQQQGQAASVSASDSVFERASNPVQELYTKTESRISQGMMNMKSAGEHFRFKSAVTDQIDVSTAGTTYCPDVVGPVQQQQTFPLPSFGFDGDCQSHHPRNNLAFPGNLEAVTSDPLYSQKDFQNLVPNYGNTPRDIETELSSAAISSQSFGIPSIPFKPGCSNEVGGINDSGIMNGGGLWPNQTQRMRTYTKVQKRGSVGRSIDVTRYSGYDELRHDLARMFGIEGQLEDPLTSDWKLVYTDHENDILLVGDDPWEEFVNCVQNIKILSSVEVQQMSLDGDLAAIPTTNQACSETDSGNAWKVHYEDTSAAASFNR

T3: ARF8 (Arabidopsis thaliana) (UniProt Q9FGV1)
T3 sequence: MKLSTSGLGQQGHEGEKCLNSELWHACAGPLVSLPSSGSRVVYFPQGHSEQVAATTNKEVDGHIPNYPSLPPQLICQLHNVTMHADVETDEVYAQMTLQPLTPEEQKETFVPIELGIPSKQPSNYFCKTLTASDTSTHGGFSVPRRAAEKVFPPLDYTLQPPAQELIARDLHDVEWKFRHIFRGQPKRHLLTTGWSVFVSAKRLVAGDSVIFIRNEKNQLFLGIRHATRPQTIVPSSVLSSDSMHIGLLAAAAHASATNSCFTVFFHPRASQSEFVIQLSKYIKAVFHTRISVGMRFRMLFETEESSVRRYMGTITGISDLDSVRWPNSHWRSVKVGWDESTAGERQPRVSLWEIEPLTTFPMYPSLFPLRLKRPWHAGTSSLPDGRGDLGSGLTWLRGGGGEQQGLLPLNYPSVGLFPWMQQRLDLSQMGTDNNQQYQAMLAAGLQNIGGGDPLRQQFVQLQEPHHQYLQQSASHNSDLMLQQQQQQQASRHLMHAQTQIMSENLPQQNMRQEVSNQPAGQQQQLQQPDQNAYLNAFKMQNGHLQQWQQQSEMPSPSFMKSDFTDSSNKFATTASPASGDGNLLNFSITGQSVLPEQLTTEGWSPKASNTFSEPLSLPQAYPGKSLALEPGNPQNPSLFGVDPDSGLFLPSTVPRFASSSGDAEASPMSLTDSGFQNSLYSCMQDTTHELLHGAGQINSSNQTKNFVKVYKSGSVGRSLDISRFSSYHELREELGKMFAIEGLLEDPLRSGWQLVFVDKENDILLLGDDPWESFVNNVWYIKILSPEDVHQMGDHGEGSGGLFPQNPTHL

B1: Aux/IAA34 (protein, UniProt Q9C5X0 1-185)
chain: MYCSDPPHPLHLVASDKQQKDHKLILSWKKPTMDSDPLGVFPNSPKYHPYYSQTTEFGGVIDLGLSLRTIQHEIYHSSGQRYCSNEGYRRKWGYVKVTMDGLVVGRKVCVLDHGSYSTLAHQLEDMFGMQSVSGLRLFQMESEFCLVYRDEEGLWRNAGDVPWNEFIESVERLRITRRNDAVLPF
B2: Aux/IAA4 (protein, UniProt P33077 1-186)
chain: MEKVDVYDELVNLKATELRLGLPGTEETVSCGKSNKRVLPEATEKEIESTGKTETASPPKAQIVGWPPVRSYRKNNVQTKKSESEGQGNYVKVSMDGAPYLRKIDLTMYKQYPELMKSLENMFKFSVGEYFEREGYKGSDFVPTYEDKDGDWMLVGDVPWEMFVSSCKRLRIMKGSEVKGLGCGGL
B3: Aux/IAA29 (protein, UniProt Q93WC4 1-251)
chain: MELDLGLSLSPHKSSKLGFNFDLNKHCAIEGAASCLGTEKLRFEATFGLGNVEENCYMPKQRLFALNGQPNEEDEDPLESESSIVYDDEEENSEVVGWPPVKTCMIKYGSYHHRHIRNHHHCPYHHRGRRITAMNNNISNPTTATVGSSSSSSISSRSSMYVKVKMDGVAIARKVDIKLFNSYESLTNSLITMFTEYEDCDREDTNYTFTFQGKEGDWLLRGDVTWKIFAESVHRISIIRDRPCAYTRCLF
B4: Aux/IAA33 (protein, UniProt Q9FKM7 1-171)
chain: MNSFEPQSQDSLQRRFHQDNSTTQQPRDTTTPFIPKPASKNHNNSNSSSGAAGRSFQGFGLNVEDDLVSSVVPPVTVVLEGRSICQRISLDKHGSYQSLASALRQMFVDGADSTDDLDLSNAIPGHLIAYEDMENDLLLAGDLTWKDFVRVAKRIRILPVKGNTRQVKRNE
B5: Aux/IAA31 (protein, UniProt Q8H174 1-158)
chain: MEVSNSCSSFSSSSVDSTKPSPSESSVNLSLSLTFPSTSPQREARQDWPPIKSRLRDTLKGRRLLRRGDDTSLFVKVYMEGVPIGRKLDLCVFSGYESLLENLSHMFDTSIICGNRDRKHHVLTYEDKDGDWMMVGDIPWDMFLETVRRLKITRPERY
B6: Aux/IAA3 (protein, UniProt Q38822 1-189)
chain: MDEFVNLKETELRLGLPGTDNVCEAKERVSCCNNNNKRVLSTDTEKEIESSSRKTETSPPRKAQIVGWPPVRSYRKNNIQSKKNESEHEGQGIYVKVSMDGAPYLRKIDLSCYKGYSELLKALEVMFKFSVGEYFERDGYKGSDFVPTYEDKDGDWMLIGDVPWEMFICTCKRLRIMKGSEAKGLGCGV
B7: Aux/IAA5 (protein, UniProt P33078 1-163)
chain: MANESNNLGLEITELRLGLPGDIVVSGESISGKKRASPEVEIDLKCEPAKKSQVVGWPPVCSYRRKNSLERTKSSYVKVSVDGAAFLRKIDLEMYKCYQDLASALQILFGCYINFDDTLKESECVPIYEDKDGDWMLAGDVPWEMFLGSCKRLRIMKRSCNRG
B8: Aux/IAA30 (protein, UniProt Q9M1R4 1-172)
chain: MGRGRSSSSSSIESSCKSNPFGVSSSNTRNLSTDLRLGLSFGSSSGQYYNGGDNHEYDGVGAAEEMMIMEEEEQNECNSVGSFYVKVNMEGVPIGRKIDLLSLNGYHDLITTLDYMFNASILWAEEEDMCSEKSHVLTYADKEGDWMMVGDVPWEMFLSSVRRLKISRAYHY

One experiment deals with T1, ARF5 (Arabidopsis thaliana). The experiment in a line: two-hybrid; S. cerevisiae AH109 co-transformed with pGBKT7-ARF (bait) and pGADT7-Aux/IAA (prey); growth on SD/-Ade-His-Leu-Trp against SD/-Leu/-Trp; at least 10 independent colonies; serial dilutions for strength.
For the molecule B1, the binding result is recorded as “binds”.
Same read-out and setting: the same measure for B2: “binds”.
Same read-out and setting: the same measure for B3: “binds”; for B4: “binds”; for B5: “binds”.
For the molecule B6, the binding result was “binds”.
Still for that read-out and setting: next, B7: “binds”; B8: “binds”.

In another experiment the target is T2, ARF19 (Arabidopsis thaliana). Described as above.
Regarding B1, the binding entry was “binds weakly”.
The same measure, in the same setting: next, B2: “binds”.
Turning to B3, the binding result is listed as “binds”.
Take B4: the binding entry was “binds”.
As for B5, the binding result is “binds”.
Consider B6, for which the binding result is listed as “binds”.
The same measure, in the same setting: the same measure for B7: “binds”; for B8: “binds”.

A further experiment deals with T3, ARF8 (Arabidopsis thaliana). Described as above.
For B1, the binding entry is listed as “binds”.
Consider B2, for which the binding entry is on record as “binds”.
On to B3, for which the binding result is “binds”.
Take B4: the binding entry is recorded as “binds”.
As to B5, the binding result was “binds”.
On the same count and under the same terms, the same measure for B6: “binds”; for B7: “binds”; for B8: “binds”.
